Laboratory results reported in the supplement of paper PMC9174493.
Some of the results follow. Single values of this set are uncertain. Values with irradiation are relative to irradiated vehicle.

Each compound was assayed on A549-Dual (assay: ISRE reporter (Lucia luciferase) activity, viability-corrected, relative to vehicle (fold change vs vehicle); higher = more activation of STING-IRF / NF-kB immune response reporter). Conditions: 10 µM; irradiation: none.
`CC1=C(C(=O)OC(C)C)C(c2cccc([N+](=O)[O-])c2)C(C(=O)OC2CN(C(c3ccccc3)c3ccccc3)C2)=C(N)N1` (stereo not given) [Azelnidipine] was tested, and the ISRE reporter was 0.789.
`O=C(OC1CN2CCC1CC2)N1CCc2ccccc2C1c1ccccc1` (stereo not given) [Solifenacin] gave an ISRE reporter of 1.32.
Work on `CCOc1nc2cccc(C(=O)O)c2n1Cc1ccc(-c2ccccc2-c2nn[nH]n2)cc1` [Candesartan] yielded an ISRE reporter of 0.638.
`Clc1ccc(CCC(Cn2ccnc2)Sc2c(Cl)cccc2Cl)cc1` (stereo not given) [Butoconazole] was tested, and the ISRE reporter was 0.29.
`CC1COc2c(C3(N)CC3)c(F)cc3c(=O)c(C(=O)O)cn1c23.CS(=O)(=O)O` (stereo not given) [Pazufloxacin mesylate] gave an ISRE reporter of 0.709.
`CC(COc1ccccc1)N(CCCl)Cc1ccccc1.Cl` (stereo not given) [Phenoxybenzamine HCl] gave an ISRE reporter of 0.82.
In the case of `COc1cc(NC(C)CCCN)c2ncccc2c1.O=P(O)(O)O.O=P(O)(O)O` (stereo not given) [Primaquine Diphosphate], the ISRE reporter is reported as 1.19.
In the case of `CNCC(O)C(O)C(O)C(O)CO` (stereo not given) [Meglumine], the ISRE reporter is reported as 0.465.
`COc1ccccc1OCC(O)COC(N)=O` (stereo not given) [Methocarbamol] gave an ISRE reporter of 1.02.
`CC(C)N=c1cc2n(-c3ccc(Cl)cc3)c3ccccc3nc-2cc1Nc1ccc(Cl)cc1` [Clofazimine] showed an ISRE reporter of 2.3.
Work on `C[N+]1(C)C2CC(OC(=O)C(O)(c3cccs3)c3cccs3)CC1C1OC12.O.[Br-]` (stereo not given) [Tiotropium Bromide hydrate] yielded an ISRE reporter of 1.26.
Work on `OC1COC(O)C(O)C1O` (stereo not drawn) [L(+)-Arabinose] yielded an ISRE reporter of 0.65.
Work on `O=C(O)C(=O)c1ccccc1` [Phenylglyoxylic acid] yielded an ISRE reporter of 0.525.
For `O=C(O)c1c[nH]c2ccccc12` [Indole-3-carboxylic acid], the ISRE reporter was 0.476.
`N=C(N)c1ccc(OCCCCCOc2ccc(C(=N)N)cc2)cc1.O=S(=O)(O)CCO.O=S(=O)(O)CCO` [Pentamidine isethionate] showed an ISRE reporter of 0.639.
With `C=CC1=C(C(=O)O)N2C(=O)C(NC(=O)/C(=N\OCC(=O)O)c3csc(N)n3)C2SC1` (stereo not given) [Cefixime] the ISRE reporter was 0.757.
In the case of `O=c1[nH]c(=O)n(C2CC(O)C(CO)O2)cc1/C=C/Br` (stereo not given) [Brivudine], the ISRE reporter is reported as 0.835.
`CC1=CC(=O)C2CC1C2(C)C` (single isomer, unassigned; (-)) [(-)-Verbenone] gave an ISRE reporter of 0.468.
With `OB1OCc2cc(F)ccc21` [Tavaborole (AN-2690)] the ISRE reporter was 0.499.
In the case of `O=c1cc[nH]c(=S)[nH]1` [2-Thiouracil], the ISRE reporter is reported as 0.772.
`CCOCCn1c(N2CCCN(C)CC2)nc2ccccc21.O=C(O)/C=C/C(=O)O.O=C(O)/C=C/C(=O)O` [Emedastine Difumarate] showed an ISRE reporter of 0.879.
`CCCS(=O)c1ccc2nc(NC(=O)OC)[nH]c2c1` (stereo not given) [Albendazole Oxide] was tested, and the ISRE reporter was 1.83.
In the case of `CC(Cc1ccc(O)c(O)c1)C(C)Cc1ccc(O)c(O)c1` (stereo not given) [Nordihydroguaiaretic acid (NDGA)], the ISRE reporter is reported as 0.708.
With `COc1cc2c(cc1OC)C1Cc3ccc(OC)c(OC)c3CN1CC2.Cl` (stereo not given) [Tetrahydropalmatine hydrochloride] the ISRE reporter was 0.953.
Work on `C#CC1(O)CCC2C3CCC4=CC(=O)CCC4C3CCC21CC` (stereo not given) [Levonorgestrel] yielded an ISRE reporter of 0.549.
`CCCCC(=O)N(Cc1ccc(-c2ccccc2-c2nn[nH]n2)cc1)C(C(=O)O)C(C)C` (stereo not given) [Valsartan] gave an ISRE reporter of 0.669.
Compound `OCC(O)COc1ccc(Cl)cc1` (stereo not given) [Chlorphenesin] has an ISRE reporter of 0.693.
`CCCNC(C)C(=O)Nc1ccccc1C.Cl` (stereo not given) [Prilocaine hydrochloride] was tested, and the ISRE reporter was 0.928.
With `C[n+]1ccccc1/C=N/O.[Cl-]` [Pralidoxime chloride] the ISRE reporter was 0.63.
Work on `O=c1[nH]c2ccccc2n1CCN1CCN(c2cccc(C(F)(F)F)c2)CC1` [Flibanserin] yielded an ISRE reporter of 1.03.
`O=C1c2cccc(O)c2C(=O)c2c(O)cccc21` [Danthron] gave an ISRE reporter of 1.56.
For `CC12CCC(C1)C(C)(C)C2=O` (single isomer, unassigned; (-)) [(-)-Fenchone], the ISRE reporter was 0.525.
With `C[N+](C)(C)CCO.Cn1c(=O)c2[n-]cnc2n(C)c1=O` [Oxtriphylline] the ISRE reporter was 0.308.
Compound `COC(=O)C1CC2=CC(=O)CCC2(C)C23OC2CC2(C)C(CCC24CCC(=O)O4)C13` (stereo not given) [Eplerenone] has an ISRE reporter of 0.722.
`O=C(NCCO[N+](=O)[O-])c1cccnc1` [Nicorandil] gave an ISRE reporter of 0.823.
Compound `CC1CN(CC(Cc2ccccc2)C(=O)NCC(=O)O)CCC1(C)c1cccc(O)c1.O.O` (stereo not given) [Alvimopan dihydrate] has an ISRE reporter of 0.468.
Compound `CCN1CCCC1CNC(=O)c1cc(S(=O)(=O)CC)c(N)cc1OC` (stereo not given) [Amisulpride] has an ISRE reporter of 0.812.
Compound `CC(O)C1C(=O)N2C(C(=O)O)=C(SC3CNC(CNS(N)(=O)=O)C3)C(C)C12` (stereo not given) [Doripenem] has an ISRE reporter of 0.735.
`NC(=O)N/N=C/c1ccc([N+](=O)[O-])o1` [Nitrofural] was tested, and the ISRE reporter was 0.728.
Work on `Cc1ccc(NC(=O)C2(c3ccc4c(c3)OC(F)(F)O4)CC2)nc1-c1cccc(C(=O)O)c1` [VX-809 (Lumacaftor)] yielded an ISRE reporter of 0.785.
